Results: PubChem BioAssay AID1346378 (National Center for Advancing Translational Sciences (NCATS), 2018)
The campaign covered roughly 420,000 compounds. About 540 (0.13%) were called active. This list was built around the results that the source calls inconclusive (neither active nor inactive); the mix of calls is not that of the screen. No stated cut-off is given here; in the data, active means activity change below about -50%; inconclusive means mostly about -30% to -49%; inactive means weaker than that.

These compounds were tested against Phosphatidylinositol 4-kinase type 2-alpha (Homo sapiens) (UniProt Q9BTU6) (assay: qHTS for small molecular inhibitors of PI4K2A). Details: purified PI4K2A, ADP-Glo luminescence, 1 h; at 76.9 µM, stronger effect = lower value.
Sequence of UniProt Q9BTU6 (Q9BTU6 whole entry, looked up): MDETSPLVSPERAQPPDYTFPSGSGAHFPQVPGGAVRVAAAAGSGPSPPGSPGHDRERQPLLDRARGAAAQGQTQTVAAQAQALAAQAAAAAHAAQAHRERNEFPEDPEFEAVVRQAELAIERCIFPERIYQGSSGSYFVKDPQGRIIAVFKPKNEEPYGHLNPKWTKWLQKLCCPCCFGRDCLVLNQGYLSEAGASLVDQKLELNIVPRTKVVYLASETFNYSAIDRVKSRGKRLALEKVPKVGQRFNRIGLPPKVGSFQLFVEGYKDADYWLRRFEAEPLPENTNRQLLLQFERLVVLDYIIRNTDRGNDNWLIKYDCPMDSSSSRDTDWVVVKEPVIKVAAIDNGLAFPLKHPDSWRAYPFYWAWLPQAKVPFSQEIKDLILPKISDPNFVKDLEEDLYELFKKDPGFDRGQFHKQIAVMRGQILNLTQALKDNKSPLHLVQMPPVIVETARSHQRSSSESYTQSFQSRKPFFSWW
In short: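 Compounds are screened against recombinant PI4K2A using PI as substrate and ATP, the latter dispensed at 300 microM. Reactions run one hour at ambient temperature before ADP-Glo detection; full inhibition defined by wells lacking enzyme.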
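Further: -100% = wells without enzyme as full effect.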

SMILES	activity change, negative = inhibition
CC1=NN(c2ccc(C(=O)O)cc2)C(=O)/C1=C\c1ccc(OC(=O)c2cccs2)cc1	inconclusive: -48.3%
CC(C)=CCC[C@@](C)(O)[C@H]1CC=C(C)CC1	inactive: 4.14%
COc1ccc(C2=CC3=C(Br)C(=O)C(C)(OC(=O)c4ccco4)C(=O)C3=CO2)cc1 (configuration not stated)	inconclusive: -30.4%
COc1ccc(NC(=O)c2c3c(nc4ccccc24)CCC3)cc1S(=O)(=O)N1CCOCC1	inconclusive: -30.1%
CN1C(=O)Cc2cc(S(=O)(=O)NCc3cccs3)ccc21	inconclusive: -48.6%
COc1ccccc1N(C)S(=O)(=O)c1ccc(C(=O)OCC(=O)N(C)c2ccccc2)cc1	inactive: 0.849%
CC1(C)Nc2ccc(O)cc2-c2c1ssc2=S	inconclusive: -36%
Cc1[nH][nH]c(=O)c1C(c1ccc(-c2ccc(F)cc2)o1)c1c(C)[nH][nH]c1=O	inconclusive: -33.5%
COC(=O)C1CN(Cc2cn(Cc3ccc(C)cc3)nn2)CCS(=O)(=O)N1Cc1ccc(F)cc1 (configuration not stated)	inactive: -1.29%
CC(=O)c1ccc(NC(=O)Nc2ccc(Cl)cc2)cc1	inactive: -0.0836%
CCc1nc2sc3ccccc3c(=O)c2c(=O)n1Cc1ccco1	inconclusive: -31.3%
CCSC1=C(C#N)C2(CCCC2)C(C#N)=C(N)N1	inactive: 1.18%
Cc1[nH][nH]c(=O)c1C(c1ccc(Br)cc1)c1c(C)[nH][nH]c1=O	inconclusive: -31.9%
COCC(=O)N/N=C/c1c(C)[nH]n(-c2ccccc2)c1=O	inconclusive: -38%
Cc1csc(N=Cc2ccc([N+](=O)[O-])o2)n1	inconclusive: -45.8%
O=C1CC(c2ccco2)CC(O)=C1C=NCC1NCCc2ccccc21 (configuration not stated)	inconclusive: -38.1%
C=C1C(=O)[C@]23C[C@H]1CCC2[C@]1(C)CCC[C@@](C)(C(=O)O)C1C[C@@H]3O (some centres not stated)	inconclusive: -31.5%
c1cncc(-c2cccnc2)c1	active: -64.8%
O=C(O)c1cccc2cccc(-c3c4ccc(=O)c(O)c-4oc4c(O)c(O)ccc34)c12	active: -55.3%

SMILES	activity change, negative = inhibition
Cc1ccc(S(=O)(=O)Nc2ccccc2/C=N/c2nc3ccccc3n2C)cc1	inactive: -6.07%
Cc1cc(Cl)ccc1NC(=O)Cn1nc(C)c2c(C)n(-c3ccccc3)nc2c1=O	inconclusive: -32.2%
O=C(CSc1nnc(Cn2c(=O)sc3ccccc32)n1-c1ccccc1)N1CCOCC1	inconclusive: -41.1%
S=C1Cc2ccccc2N1	inconclusive: -48.2%
C=CCOc1ccc(-c2n[nH]c(=S)o2)cc1	inactive: -3.28%
Cc1[nH]n2c(=O)cc(-c3ccc(Cl)cc3)nc2c1-c1ccccc1	inactive: 2.41%
N#Cc1c(N)sc(=S)c2c1CCCCC2	inconclusive: -41.3%
Cn1nc(-c2ccccn2)nc2c(=O)n(C)c(=O)nc1-2	active: -63.4%
CCOc1cc(N2CCOCC2)c(OCC)cc1NC(C)C(=O)N1CCN(CC)CC1 (configuration not stated)	inconclusive: -34.5%
CC(C)(C)SCCNC(=O)c1ccccc1	inactive: 0.785%
Cn1c(SCC(=O)N2CCN(c3ccccc3)CC2)nnc1-c1cc2ccccc2o1	inactive: -1.67%
CCOc1ccc(NC(=O)CN(C)C(=O)c2cc3c(s2)CCC3)cc1OCC	inconclusive: -32.4%
O=C1C[C@@H](O)[C@H](O)c2cccc(O)c21	inactive: -12.9%
O=C(Nc1ccc(C(=O)N2CCCCC2)cc1)C1=CSCCO1	inconclusive: -33.1%
O=C(/C=C/c1ccccc1Cl)Nc1cccc(S(=O)(=O)NC2=NCCCCC2)c1	inactive: -4.9%
Cc1nn(-c2cccc(Cl)c2)c2c1C(c1cccnc1)C(C#N)=C(N)O2 (configuration not stated)	active: -51%
O=C(c1cc2ccc3cccnc3c2[nH]1)N1CCCCC1	inconclusive: -33.4%
C/C=C/C=C\C(=O)Nc1cccc(C2=NOC3(C2)C[C@@H](C(N)=O)N(C(=O)/C(C)=C/C)C3)c1 (some centres not stated)	inconclusive: -31.5%
COc1ccc(OCc2cccc(C(=O)O)c2)cc1	inconclusive: -43%

SMILES	activity change, negative = inhibition
O=C(CN1CCC(n2nnc3cc(C(F)(F)F)ccc32)CC1)Nc1ccc2c(c1)CCC2	inconclusive: -30.1%
Cc1ccc(-c2cc3c(nn2)-c2ccccc2C3=O)cc1	active: -63.2%
Nc1ncnc2c1ncn2[C@@H]1O[C@H](C(=O)NS(=O)(=O)c2cccs2)[C@@H](O)[C@H]1O	inconclusive: -34.4%
CN(C)CCNC(=S)Nc1cccc(Cl)c1	active: -51.2%
O=C(N/N=C/C=C/c1ccco1)/C(=C/c1ccccc1)NC(=O)c1ccccc1	inconclusive: -32.1%
CC1CCC/C=C/C(=O)c2c(O)cc(O)cc2CC(=O)O1 (configuration not stated)	inconclusive: -38.8%
COC1=CC(=NCl)C=CC1=NCl	inconclusive: -45.5%
CN(C)c1ccc(N/C=C/C(=O)c2ccc(F)cc2)cc1	inconclusive: -37%
COC1=C(N)C(=O)c2nc(-c3nc(C(=O)O)c(C)c(-c4ccc(OC)c(OC)c4O)c3N)ccc2C1=O	inconclusive: -39%
COc1cc(NC(C)CCCN)c2ncccc2c1 (configuration not stated)	inconclusive: -36.4%
COc1ccc2c(c1)sc1nc(-c3ccccc3)cn12	active: -60.1%
CN1C(=O)C(O)(CC(=O)/C=C/c2ccco2)c2ccccc21 (configuration not stated)	inactive: -2.83%
O=C1C=CC(=O)N1c1ccc2c(c1)C(NC(=O)C(F)(F)F)c1ccccc1-2 (configuration not stated)	inactive: 16.4%
COc1ccc2nc(SCC(=O)Nc3ccccc3C)[nH]c2c1	inactive: -7.36%
Cc1ccc(OCCC(=O)OCC(=O)Nc2ccc(Cl)cn2)cc1	inactive: -6.83%
Nc1nc(Sc2ccc([N+](=O)[O-])c3nonc23)c2[nH]cnc2n1	active: -52.2%
CN(C)CCCNc1cc(O)c2ncccc2c1	inconclusive: -40.6%
O=[N+]([O-])c1ccc(Cl)c(-c2ccc(/C=N/c3c(-c4ccco4)nc4ccccn34)o2)c1	inconclusive: -39.1%
Cn1c(=O)n(Cc2ccccc2Cl)c(=O)c2c1[nH]c(=S)n2C	inactive: 0.551%
